Data taken from ChEMBL document CHEMBL4888484, “Replenishing the malaria drug discovery pipeline: Screening and hit evaluation of the MMV Hit Generation Library 1 (HGL1) against asexual blood stage Plasmodium falciparum ,using a nano luciferase reporter read-out” (2022).
Out of some 150,000 compounds screened, about 540 (0.36%) showed an effect of 50% or more. The list shows a part of the results.

tested on: Plasmodium falciparum; assay: Primary screen in NF54 nanoGlo assay, in single point, at 2uM, 72h; a lower Z score goes with more inhibition; assay type: functional, Erythrocyte; details: timepoint 72 hour

| Compound | % Inhibition [%] | Z score |
| --- | --- | --- |
| O=C(NCC1CCOCC1)Nc1ccc(Cl)cc1-n1cccn1 | -2 | 0.45 |
| COCC(=O)N(Cc1ccccc1)[C@H]1CCOc2ccc(OC)cc21 | 13 | -1.71 |
| O=C1CC[C@@]2(CCCN(c3ccc(F)cn3)C2)CN1Cc1ccccc1 | -14 | 1.62 |
| CCN(CC)C(=O)N1C[C@@H](Oc2cccnc2)C[C@@H]1C(=O)N1CCOCC1 | -17 | 3.03 |
| CN(C(=O)COc1cccnc1)[C@H]1COC[C@@H]1O | -7 | 0.83 |
| O=C(NCc1ccccn1)c1cc(-c2ccccc2)cc(Cl)c1O | -2 | 0.26 |
| COCC(=O)N1CCc2nc(N3CCCCC3)nc(Oc3ccccc3)c2C1 | -7 | 1.14 |
| CCC(=O)Nc1ccc(F)c(NC(=O)N(CC)[C@H]2COC[C@@H]2O)c1 | -8 | 1.03 |
| C[C@H]1CCCN(CCCNC(=O)C(=O)Nc2cccc3[nH]ccc23)C1 | -1 | 0.12 |
| CCC1(CC)NC(=O)N(CC(=O)N2CC(C)NC(C)C2)C1=O (stereo not drawn) | -9 | 1.34 |
| Cc1cc(CC(=O)NC2CCCCC2C(N)=O)no1 (stereo not drawn) | -1 | 0.09 |
| COc1cc(CNn2nnnc2N)cc(Br)c1OCc1ccc(Cl)cc1Cl | -32 | 3.72 |
| O=C(c1cn2c(n1)CCCC2)N1CC[C@H](Cc2nccs2)C1 | -2 | 0.41 |
| O=S(=O)(c1ccc2c(c1)CCN2)N1CCCCCC1 | -6 | 0.87 |
| NC(=NCc1ccc(Cl)cn1)N1CCCCCC1 | 4 | -0.54 |
| Cc1cc(C(F)(F)F)nn1CCNC(=O)CC[C@@H]1NC(=O)NC1=O | -5 | 0.75 |
| NC(=O)c1cnc(N[C@H]2CCCN(c3ncccn3)C2)c(Cl)c1 | 9 | -1.2 |
| COc1ccc(CC/N=C2\CCCc3ccccc3N2)cc1OC | -1 | 0.18 |
| CCC1(C)OC(=O)N(CCC(=O)Nc2ccccc2C(F)(F)F)C1(C)O (stereo not drawn) | 5 | -0.68 |
| CCCOc1ccc(CC(=O)NC2(c3nnc[nH]3)CCC2)cc1OCCC | 1 | -0.21 |
| CC(NC(=O)C1C2CCCCC21)c1nc[nH]n1 (stereo not drawn) | -14 | 2.47 |

| Compound | % Inhibition [%] | Z score |
| --- | --- | --- |
| CC1CC(C)CN(C(C)(C)CNC(=O)NC(C)C)C1 (stereo not drawn) | -12 | 2.36 |
| Cc1cnc(C)c(-c2cc(O)c3c(c2)CN(c2ncc(C)c(N)n2)CCO3)n1 | 0 | -0.03 |
| Cc1ccc(CN(C)C(=O)N[C@H]2CCCc3ccccc32)nc1 | -9 | 1.34 |
| O=C1CCCC[C@@](Cc2ccccc2)(C(=O)N2CCN(Cc3ccc4c(c3)OCO4)CC2)N1 | -14 | 1.56 |
| O=S(=O)(c1cn[nH]c1)N1CCCO[C@@H](CN2CCCCC2)C1 | -11 | 1.22 |
| O=S(=O)(Nc1ccc2c(c1)CCC2)c1ccc2c(c1)OCCO2 | 11 | -1.36 |
| C[C@@]1(C(=O)NCc2ccccc2)CCC(=O)N1CCC1=CCCCC1 | 2 | -0.26 |
| CCc1ccc(CNC(=O)c2cnn(-c3ncccc3-c3nc(C)no3)c2C)cc1 | -12 | 1.82 |
| COc1cccc(C(=O)N2CCc3c(c(-c4nncn4CC4CC4)nn3C)C2)c1 | -17 | 2.5 |
| COc1c(Br)cccc1CCN=C(N(C)C)N(C)C | -7 | 0.96 |
| O=C(NCc1cccc(Cl)c1F)c1ncoc1C1CC1 | -27 | 3.43 |
| CC(C)C(=O)NCC(=O)N1CC[C@@]2(CCCN(CCCc3ccccc3)C2)C1 | -7 | 1.41 |
| COCCC(=O)NCCc1ncc(C)n1C(C)C | -13 | 1.43 |
| CCN(CC)c1onc(-c2ccccc2)c1CN(C[C@H]1CCCO1)C(=O)c1ccc(F)cc1 | -2 | 0.33 |
| Cc1ccc(=O)n(CC(=O)N2CCOC[C@H]2C2CCC2)n1 | 30 | -3.38 |
| CC(C)c1cc(C(=O)N(C)Cc2nccn2C)no1 | 1 | -0.25 |
| Cc1ccc2c(c1)[C@@H](NCc1ccco1)CC2 | -5 | 0.61 |
| O=C(O)C[C@@H]1CCN(C(=O)C2CCCC2)C[C@@H]1CCN1CCN(c2ccccc2)CC1 | 4 | -0.69 |
| Cn1nc(CN2C[C@H](O)[C@@H](N3CCCOCC3)C2)c2c(Cl)cccc21 | -7 | 1.4 |
| CCn1nncc1CN1CCOC[C@H]1c1ccc(COC)o1 | 2 | -0.47 |
| CN1CCCN(C(=O)c2nn(C)c3c2CN(Cc2ccc(OC(F)(F)F)cc2)C3)CC1 | -11 | 1.42 |

| Compound | % Inhibition [%] | Z score |
| --- | --- | --- |
| O=C(NCCc1ccc(-c2ccsc2)s1)c1ccsc1 | -4 | 0.81 |
| CC[C@H](NCc1cc2ccc(C)cc2nc1N1CCOCC1)c1cccs1 | -11 | 2.12 |
| Cc1cccc(-c2noc(CNC(=O)c3ccccc3CCc3ccccc3)n2)c1 | -6 | 0.89 |
| CC(C)(O)[C@H]1CCN(S(=O)(=O)c2ccc3[nH]cnc3c2)C1 | -27 | 2.34 |
| CN1C(=O)[C@H](Cc2nc(C3CC3)nn2-c2cccc3cccnc23)N(C)C1=O | 1 | -0.08 |
| Cc1cc2nc3n(c(=O)c2n1CC(=O)N[C@@H](C)c1ccccc1)CCCCC3 | -1 | 0.23 |
| O=c1[nH]c2ccccc2c(=O)n1[C@H]1CCS(=O)(=O)C1 | -3 | 0.28 |
| C[C@H]1CN(C(=O)c2cc(-c3ccc(F)cc3)[nH]n2)CCO1 | -9 | 0.78 |
| CC(=O)N[C@@H](Cc1ccccc1)C(C)(C)C | 6 | -0.94 |
| O=C(NCc1ccco1)N1CCOc2ccc(C(=O)N3CCCC3)cc2C1 | 2 | -0.29 |
| CC1CC(C(=O)O)CCN1C(=O)OC(C)(C)C (stereo not drawn) | -9 | 1.33 |
| CC(=O)c1cnc(NCc2ccc(N3CCC[C@H](C)C3)cc2)nc1C | -7 | 0.64 |
| COC1CCN(C(=O)N(C[C@H](O)c2ccc(F)cc2)C2CC2)CC1 | 10 | -1.96 |
| CCn1c([C@H]2CCCN(C(C)=O)[C@H]2C)nnc1N1CCC(OC)CC1 | -11 | 1.88 |
| CCN1c2ccc(F)cc2C(=O)NC12CCN(C(=O)c1cc(F)cc(F)c1)CC2 | 2 | -0.33 |
| Cc1c(CNCCN2CCCC[C@@H]2CO)cc(C#N)n1C | -4 | 0.73 |
| Cc1c[nH]c([C@H](C)NC(=O)Cc2c(C)n[nH]c2C)n1 | 7 | -0.88 |
| COc1ccccc1Cc1n[nH]c([C@@H](N)C(C)(C)C)n1 | -9 | 1.8 |
| N#Cc1cccnc1NCCNC(=O)[C@]1(NC(=O)OCc2ccccc2)CCOC1 | 15 | -1.75 |
| Nc1nc2c(c(NC3Cc4ccccc4C3)n1)CCNCC2 | 4 | -0.52 |
| CCc1ccc(S(=O)(=O)N2CC[C@@]3(CO)CN(Cc4ccccc4)C[C@H]3C2)cc1 | -5 | 0.56 |

| Compound | % Inhibition [%] | Z score |
| --- | --- | --- |
| O=C(Nc1ccccc1Cl)c1cc(OCc2ccccc2)no1 | -10 | 1.84 |
| COc1ccc(CNc2nccc(N3CCC[C@H](O)C3)n2)cc1OC | 5 | -0.71 |
| Cc1cc(C(=O)NCc2ccccc2)cc2c1N(C)S(=O)(=O)c1ccccc1-2 | 5 | -0.58 |
| CCC(C)(C(=O)NC1CCCC1)N(Cc1cccs1)C(=O)C1CCC(=O)N1 (stereo not drawn) | 1 | -0.15 |
| O=C(CN(Cc1ccccc1)C1CCCCC1)NC1CCOCC1 | -8 | 1.02 |
| CC1=C(CCN2CCN(CCO)CC2)C(C)(C)CCC1 | 1 | -0.12 |
| O=C(NCc1ccccc1)Nc1cnn(-c2ncncc2N2CCOCC2)c1 | -3 | 0.29 |
| CC(=O)N1CCN(C(=O)[C@H](C)N2C(=O)COc3ccc(C(=O)COc4ccc(F)c(F)c4)cc32)CC1 | -13 | 1.81 |
| CC(C)c1nnc(Cn2ncc3ccccc3c2=O)o1 | -6 | 0.81 |
| Cc1cc(=O)[nH]c(CCNC(=O)c2cccc(OC(F)F)c2)n1 | -3 | 0.62 |
| CNc1ccc(C)cc1CN[C@@H]1COC[C@@H]1O | -4 | 0.49 |
| Cc1cc(C)c(C#N)c(N2CCC(CCCn3ccnc3)CC2)n1 | -5 | 0.52 |
| COc1ccc(CC[C@H]2CCCCN2C(=O)c2cnc[nH]2)cc1OC | -2 | 0.33 |
| CCCN1N=C(C(=O)N2CCCCCC2)S(=O)(=O)c2ccc(C)cc21 | -9 | 1.16 |
| Cc1cc(-c2ccc(C)c(S(=O)(=O)CCC(=O)Nc3c(C)cccc3C)c2)on1 | 14 | -1.89 |
| O=C(CCS(=O)(=O)c1cccc2nsnc12)Nc1ccc2c(c1)OCO2 | -7 | 1.01 |
| O=C(NCc1ccnc(-c2cccnc2)c1)c1ccc(Br)cc1 | -5 | 0.72 |
| CCn1ccc(C(=O)N2CCC(Cc3ccc(COCCOC)cc3)CC2)n1 | -13 | 2.42 |
| Cn1nc(C(=O)N2CC3(CCC3)[C@@H]2C2CC2)cc1OC(F)F | -1 | 0.15 |
| O=C(c1cc(C2CC2)[nH]n1)N1CCCCC[C@@H]1CCO | -2 | 0.29 |
| C[C@H]1COC2(CCN(CC3(O)CCCCC3)CC2)O1 | -1 | 0.17 |
